Results taken from publication PMC4336329 (PLoS ONE, 2015).
Out of some 310,000 compounds screened, about 2,200 (0.71%) showed an effect of 50% or more. The effect is printed as a negative number. This is one part of the list.

Molecular target: human ether-à-go-go-related gene (hERG) potassium channel (human, UniProt Q12809)
Assay: primary screen, population patch clamp on CHO cells stably expressing hERG

Chain of human ether-à-go-go-related gene (hERG) potassium channel (Q12809 whole entry, looked up): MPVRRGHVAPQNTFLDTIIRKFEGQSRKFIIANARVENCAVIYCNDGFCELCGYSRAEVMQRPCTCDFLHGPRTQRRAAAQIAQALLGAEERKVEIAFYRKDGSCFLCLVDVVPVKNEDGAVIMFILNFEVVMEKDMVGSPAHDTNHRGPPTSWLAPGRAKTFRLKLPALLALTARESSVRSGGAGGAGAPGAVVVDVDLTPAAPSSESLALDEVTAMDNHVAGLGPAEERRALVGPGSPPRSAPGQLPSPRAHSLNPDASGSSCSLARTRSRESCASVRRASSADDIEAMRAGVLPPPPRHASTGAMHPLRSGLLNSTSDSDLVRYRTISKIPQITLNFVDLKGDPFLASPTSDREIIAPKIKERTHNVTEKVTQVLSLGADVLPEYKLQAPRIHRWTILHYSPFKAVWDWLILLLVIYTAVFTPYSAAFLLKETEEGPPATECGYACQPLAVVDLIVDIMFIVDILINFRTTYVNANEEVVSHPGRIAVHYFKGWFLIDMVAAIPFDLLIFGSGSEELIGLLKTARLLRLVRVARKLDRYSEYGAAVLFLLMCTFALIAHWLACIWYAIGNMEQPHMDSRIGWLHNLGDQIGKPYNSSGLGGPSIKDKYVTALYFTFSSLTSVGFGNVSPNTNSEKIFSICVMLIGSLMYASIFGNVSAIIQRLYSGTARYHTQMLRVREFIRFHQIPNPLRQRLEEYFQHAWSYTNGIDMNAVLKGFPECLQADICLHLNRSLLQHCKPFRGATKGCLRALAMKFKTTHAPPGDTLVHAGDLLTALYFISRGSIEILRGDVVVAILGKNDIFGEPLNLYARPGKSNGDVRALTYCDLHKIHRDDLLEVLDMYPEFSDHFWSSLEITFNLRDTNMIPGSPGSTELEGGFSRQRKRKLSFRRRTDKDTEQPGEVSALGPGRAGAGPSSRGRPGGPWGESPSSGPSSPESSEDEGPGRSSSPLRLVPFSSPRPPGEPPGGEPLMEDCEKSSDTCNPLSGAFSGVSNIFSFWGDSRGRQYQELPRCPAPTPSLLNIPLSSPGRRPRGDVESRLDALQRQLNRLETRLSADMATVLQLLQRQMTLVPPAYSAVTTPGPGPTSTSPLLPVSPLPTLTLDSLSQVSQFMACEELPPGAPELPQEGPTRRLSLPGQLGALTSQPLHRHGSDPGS

Compound	hERG current change (%, negative = inhibition) at 1uM [%]
Cc1cc(NCCCn2ccnc2)n2ncc(-c3ccccc3)c2n1	-34.9
COC(=O)C1=C(C)N(CCCC(=O)O)C(=O)NC1c1ccc(C#N)cc1 (stereo not shown)	-0.0268
N#C/C(=C\c1cccnc1)C(=O)Nc1ccc(O)cc1F	8.13
CCn1c(Cn2nnc(-c3ccccc3)n2)nnc1SCC(=O)Nc1ccccc1	0.98
CCc1ccc(NC(=O)C2CC=CCC2C(=O)O)cc1 (stereo not shown)	7.12
COC(=O)C1=C(c2ccc(F)cc2OCc2ccccc2)C[C@@H]2CC[C@H]1N2C(=O)NCCN1CCOCC1	13.3
c1ccc(-n2nnnc2SCc2cccc(CSc3nnnn3-c3ccccc3)n2)cc1	-3.56
Cc1cc(C)c(S(=O)(=O)N2CCCOC2CNC(=O)C(=O)NCCCn2ccnc2)c(C)c1 (stereo not shown)	11.3
COc1cc(=O)n(C)c2c(OCC(O)C(C)(C)O)cccc12 (stereo not shown)	16.6
CCOC(=O)NC(=O)CN1C(=O)NC(C)(c2ccccc2)C1=O (stereo not shown)	8.01
COc1ccc(C(=O)ON=C2c3ccccc3-c3ccccc32)cc1OC	11.9
CCCc1cc(=O)oc2cc(OCC(=O)Nc3ccc4c(c3)OCCO4)ccc12	9.35
COc1ccc(/C=C/C(=O)Nc2nc(C)c(C(=O)N(C)C)s2)cc1	3.54
CN(CCO)S(=O)(=O)c1ccc2c(c1)C(=NN)c1cc(S(=O)(=O)N(C)CCO)ccc1-2	11
CCOC(CNC(=O)CCc1c(C)nc2ncnn2c1C)OCC	8.89
O=c1c(N2CCOCC2)nsn1Cc1ccccc1	5.46
c1ccc2c(c1)CCN(c1ncnc3c1[nH]c1ccccc13)C2	18.4
CCN(CC(=O)NCc1ccc(F)cc1)C(=O)CN1CCN(c2ccccc2OC)CC1	-44.4
O=C(CSc1nc2ccccc2nc1N1CCCC1)Nc1ccc(Cl)cc1	1.8
Cc1c(OCC(=O)NCCCn2ccnc2)ccc2c3c(c(=O)oc12)CCCC3	2.79
CCn1c(SCC(=O)c2ccccc2)nc2ccccc2c1=O	10
CC1CCCN(Cc2c(O)ccc3c2O/C(=C\c2ccco2)C3=O)C1 (stereo not shown)	6.46

Compound	hERG current change (%, negative = inhibition) at 1uM [%]
CCCCC[n+]1ccn(C2=C([O-])c3ccccc3C(=O)/C2=N\S(=O)(=O)c2ccc(Br)cc2)c1	3.66
O=C(Nc1ccc(Cl)cc1)OCCn1nnnc1C(c1ccccc1Cl)N1CCOCC1 (stereo not shown)	4.94
COc1ccc(CCNC(=O)COC(=O)COc2ccc(C#N)cc2)cc1	5.38
CCN(CC(=O)NCc1ccc(Cl)cc1)C(=O)C1CCN(S(=O)(=O)c2ccc(OC)c(OC)c2)CC1	7.84
Cc1c(NC(=O)CSc2n[nH]c(-c3ccccc3)n2)c(=O)n(-c2ccccc2)n1C	6.56
COc1ccc2cc3cc(C(=O)N4CCN(Cc5ccc6c(c5)OCO6)CC4)oc3nc2c1	0.263
O=c1[nH]c(=O)n(CCc2ccc(F)cc2)c(O)c1C=NCCCn1ccnc1	8.39
CC(=O)Nc1ccccc1NS(=O)(=O)c1cccc([N+](=O)[O-])c1	13.8
Cc1ccc(-n2ncc(C(=O)NC3CC3)c2C2CCN(C(=O)OC(C)(C)C)CC2)cc1	7.14
CCOc1ccccc1N(CC(=O)NC(C)(C)C)C(=O)Cn1nnc(-c2ccc(C)o2)n1	-4.08
CCOC(=O)CN1C(=O)N[C@@H](CCc2ccccc2)[C@@H](C(=O)OC)[C@H]1C	12.6
CN(C)C(=O)c1ccc(-c2n[nH]c(=O)c3ccccc23)cc1	8.14
CCCCC(NC(=O)c1ccccc1)C(=O)OCC(=O)N1c2ccccc2Sc2ccccc21 (stereo not shown)	15.8
O=C([O-])c1cc(-c2cccnc2)nc2ccc(Br)cc12.[K+]	15.7
O=C(O)CCC(=O)Nc1ccc(Br)cc1C(=O)c1ccc(Cl)cc1	8.95
CC(Sc1ccccn1)C(=O)NC1CCCC1 (stereo not shown)	5.57
O=C1CC(=O)N(c2ccccc2)C(=O)N1c1ccccc1	8.39
Cn1c(O)c(C=Nc2ccc(Br)cc2)c(=O)n(C)c1=O	12.4
O=C(CCNS(=O)(=O)c1ccccc1)NNC(=O)C1COc2ccccc2O1 (stereo not shown)	17.8
CC(NC(=O)Cn1cc(C(=O)C2CC2)c2ccccc21)c1ccccc1 (stereo not shown)	8.23
Cc1nn(CC(=O)Nc2ccc(C(=O)N3CCCC3)cc2)c(=O)c2ccccc12	3.17
